Results on 60 molecules are retold here after the supplement of paper PMC9446081.

The campaign covered roughly 39,000 compounds. About 220 (0.56%) showed activity. The list shows a part of the results.
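Also: static incubation at 37 °C against the wild-type strain, values averaged over two biological replicates.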

This assay deals with Escherichia coli K-12 BW25113. Nature of the assay: relative growth (OD600 normalised to plate interquartile mean) (fraction); higher = less growth inhibition, active = 0.2 or less. As to conditions: 50 µM; LB; incubation time: overnight (16-24 h).
With `C[C@@H]1CN([C@H](C)CO)S(=O)(=O)c2ccc(C#CC3CCCCC3)cc2O[C@H]1CN(C)C(=O)Cc1ccncc1`, the relative growth was inactive: 0.974. `CNC(=O)C(=O)NCCc1c[nH]c2ccccc12`: the relative growth was inactive: 1.04. Regarding `Nc1nc2ccc(OC(F)(F)F)cc2s1`, the relative growth is inactive: 0.943.

On to `COc1ccc(S(=O)(=O)N[C@@H]2CC[C@@H](CCNC(=O)CN3CCOCC3)O[C@H]2CO)cc1`, for which the relative growth is inactive: 1. On to `CCC[C@@H](O)C#Cc1cnc2c(c1)C(=O)N([C@H](C)CO)C[C@H](C)[C@H](CN(C)C(=O)Nc1ccc3c(c1)OCO3)O2`, for which the relative growth was inactive: 0.895. As for `C[C@@H]1CN([C@H](C)CO)C(=O)c2cc(NC(=O)CCN3CCOCC3)ccc2O[C@H]1CN(C)S(=O)(=O)c1ccc(Cl)cc1`, the relative growth is inactive: 0.987. In the case of `Cc1csc2sc(COC(=O)Nc3ccccc3)c(C)c12` it was inactive: 0.934; in that of `C[C@H](CO)N1C[C@H](C)[C@@H](CN(C)Cc2ccc(Cl)c(Cl)c2)Oc2c(NC(=O)C3CCCCC3)cccc2C1=O`, inactive: 0.952; in that of `CC(=O)N(C)C[C@@H]1Oc2cc(C#CCN(C)C)ccc2S(=O)(=O)N([C@H](C)CO)C[C@@H]1C`, inactive: 1.04. Regarding `COc1cccc(S(=O)(=O)N(C)C[C@H]2Oc3ncc(C#CCC(C)C)cc3C(=O)N([C@H](C)CO)C[C@H]2C)c1`, the relative growth is inactive: 0.993. In the case of `O=c1c2cc(O)c(O)cc2oc2cc(O)c([C@H]3O[C@H](CO)[C@H](O)[C@@H](O)[C@H]3O)c(O)c12`, the relative growth was inactive: 0.998.

Take `CCn1[nH]c(N)c2c(=O)[nH]c(=O)cc1-2`: the relative growth was inactive: 1. In the case of `CCCNC(=O)N[C@H]1C=C[C@@H](CC(=O)N2CCN(C)CC2)O[C@@H]1CO`, the relative growth is inactive: 1.01. In the case of `COc1cc(N2CCC(N(C)C)CC2)ccc1Nc1ncc(Cl)c(Nc2ccccc2P(C)(C)=O)n1`, the relative growth is inactive: 0.979. For `COc1ccc2c(c1)c(CC(=O)O)c(C)n2C(=O)c1ccc(Cl)cc1`, the relative growth is inactive: 0.919.

Consider `C[C@H](CO)N1C[C@H](C)[C@@H](CN(C)S(=O)(=O)c2cccs2)OCCCC[C@H](C)Oc2ccc(NC(=O)c3ccccc3)cc2C1=O`, for which the relative growth was inactive: 1.04. The result for `C[C@H]1CN([C@@H](C)CO)C(=O)Cc2cc(NC(=O)Nc3cccc4ccccc34)ccc2O[C@H]1CN(C)Cc1ccccc1` reads inactive: 0.983; that for `CC(C)NC(=O)N(C)C[C@@H]1Oc2c(NS(=O)(=O)c3ccc(Cl)cc3)cccc2C(=O)N([C@H](C)CO)C[C@@H]1C`, inactive: 1.01. Regarding `CC1(C)C=Cc2c(c3c(c4c(=O)c(-c5ccc(O)c(O)c5)coc24)OC(C)(C)CC3)O1`, the relative growth is inactive: 0.981. For `CC1(C)SCN(S(=O)(=O)c2ccccc2)[C@@H]1C(=O)N[C@@H](CNC(=O)NCc1ccccc1)C(=O)O`, the relative growth is inactive: 0.997. The result for `C[C@@H]1CN([C@H](C)CO)C(=O)CCCn2nncc2CO[C@@H]1CN(C)C(=O)Nc1cccc2ccccc12` reads inactive: 0.988; that for `C=C/C=C/[C@@H]1C(=C)CN([C@@H](Cc2ccccc2)C(=O)OC)[C@H]1[C@@H](O)CCn1cc(CCC(=O)NO)nn1`, inactive: 0.973; that for `C[C@@H]1CN([C@H](C)CO)C(=O)c2cccc(NC(=O)Nc3ccc(C(F)(F)F)cc3)c2O[C@H]1CN(C)S(C)(=O)=O`, inactive: 0.953.

`COc1ccc(NC(=O)N(C)C[C@@H]2OCCCC[C@@H](C)Oc3ccc(NC(=O)NC(C)C)cc3C(=O)N([C@H](C)CO)C[C@@H]2C)cc1`: the relative growth is inactive: 1. The result for `COc1cc2c(cc1O)CCN[C@]21CS[C@@H]2c3c(OC(C)=O)c(C)c4c(c3[C@H](COC1=O)N1[C@@H]2[C@H]2c3c(cc(C)c(OC)c3O)C[C@@H]([C@@H]1O)N2C)OCO4` reads inactive: 0.453; that for `C[C@H]1CN([C@@H](C)CO)C(=O)c2cccc(NC(=O)Nc3ccccc3)c2O[C@H]1CN(C)Cc1ccc(C(=O)Nc2ccccc2N)cc1`, inactive: 1.02; that for `COc1ccccc1C#Cc1ccc2c(c1)O[C@@H](CN(C)Cc1cncnc1)[C@H](C)CN([C@H](C)CO)S2(=O)=O`, inactive: 1.03.

For `CCCn1c(N)nc2c1c(=O)n(C)c(=O)n2C`, the relative growth is inactive: 1.03. With `C[C@@H]1CN([C@@H](C)CO)C(=O)c2cc(NS(=O)(=O)c3ccccc3)ccc2O[C@@H](C)CCCCO[C@@H]1CN(C)C(=O)Nc1ccc(F)cc1`, the relative growth is inactive: 0.997. Consider `C[C@H](N[P@@](=O)(OC[C@H]1O[C@@H](n2ccc(N)nc2=O)C(F)(F)[C@@H]1O)Oc1ccccc1)C(=O)OCc1ccccc1`, for which the relative growth is inactive: 0.982.

For `O=C(C[C@@H]1C[C@@H]2c3cc(NS(=O)(=O)c4ccccc4)ccc3O[C@@H]2[C@H](CO)O1)NC1CCCCC1`, the relative growth is inactive: 1.04. For `COc1ccc(CN(C)C[C@@H]2OCCCC[C@H](C)Oc3ccc(NC(=O)Nc4c(C)noc4C)cc3C(=O)N([C@H](C)CO)C[C@@H]2C)cc1`, the relative growth was inactive: 1.03. On to `C[C@@H]1CN([C@@H](C)CO)C(=O)Cc2cc(NS(=O)(=O)c3cn(C)cn3)ccc2O[C@@H]1CN(C)S(C)(=O)=O`, for which the relative growth was inactive: 0.992. Consider `C[C@H]1CN([C@@H](C)CO)C(=O)c2cccc(NC(=O)Nc3ccccc3)c2O[C@@H]1CN(C)CC1CCCCC1`, for which the relative growth is inactive: 0.909. On to `CC1(C)C(=O)C=CC2(C)C1CC(=O)C1(C)C2CCC2(C)C(c3ccoc3)OC(=O)C3OC321` (stereo not given), for which the relative growth is inactive: 1.11.

`C[C@@H]1CCCCO[C@@H](CN(C)S(=O)(=O)c2ccccc2)[C@@H](C)CN([C@@H](C)CO)C(=O)c2cc(NC(=O)Nc3cccc4ccccc34)ccc2O1`: the relative growth was inactive: 0.979. Regarding `C[C@@H]1CN([C@@H](C)CO)C(=O)c2cc(NC(=O)Nc3ccc(F)cc3)ccc2O[C@H]1CN(C)C(=O)Nc1ccc(C(F)(F)F)cc1`, the relative growth was inactive: 1.

`COc1ccc(NC(=O)N(C)C[C@H]2OCCCC[C@@H](C)Oc3ccc(NC(=O)Nc4ccc(C(F)(F)F)cc4)cc3C(=O)N([C@@H](C)CO)C[C@@H]2C)cc1`: the relative growth was inactive: 1.02. As for `C[C@@H]1CN([C@H](C)CO)C(=O)c2cc(NC(=O)Cn3cnnn3)ccc2O[C@@H]1CN(C)S(=O)(=O)c1ccc(Cl)cc1`, the relative growth is inactive: 1.02. Take `OC[C@H]1O[C@H](O[C@]2(CCl)O[C@H](CCl)[C@@H](O)[C@@H]2O)[C@H](O)[C@@H](O)[C@H]1Cl`: the relative growth was inactive: 1.09. In the case of `COc1cccc(C#Cc2ccc3c(c2)O[C@@H](CN(C)S(=O)(=O)c2ccccc2F)[C@H](C)CN([C@@H](C)CO)S3(=O)=O)c1` it was inactive: 1.01; in that of `COc1ccc(CN(C)C[C@@H]2Oc3ccc(NC(=O)Nc4ccc(C(F)(F)F)cc4)cc3CC(=O)N([C@@H](C)CO)C[C@@H]2C)cc1`, inactive: 0.979.

For `C[C@@H]1CN([C@@H](C)CO)C(=O)c2cc(NC(=O)Cn3cnnn3)ccc2O[C@@H]1CN(C)S(=O)(=O)c1ccccc1`, the relative growth is inactive: 0.978. On to `CO[C@@H]1CN(C)C(=O)c2cc(NC(=O)CC(F)(F)F)ccc2OC[C@H](C)N(C(=O)C2CCOCC2)C[C@@H]1C`, for which the relative growth was inactive: 1.02. In the case of `COC(=O)[C@H]1C[C@@]2(C(=O)O)C[C@](C(=O)O)(C[C@@H](C(=O)OC)C2=O)C1=O` it was inactive: 1; in that of `C[C@H](CO)N1C[C@H](C)[C@@H](CN(C)C(=O)C2CCCCC2)Oc2cc(C#CC(C)(C)O)ccc2S1(=O)=O`, inactive: 1.01; in that of `Cc1ccc(S(=O)(=O)N(C)C[C@H]2OCCCC[C@H](C)Oc3ccc(NS(=O)(=O)c4ccc(Cl)cc4)cc3C(=O)N([C@@H](C)CO)C[C@@H]2C)cc1`, inactive: 0.954. Consider `O=c1[nH]c2ccccc2c(O)c1[I+]c1ccccc1`, for which the relative growth was inactive: 0.758. For the molecule `COc1ccccc1S(=O)(=O)N[C@@H]1CC[C@@H](CCNC(=O)C2CCOCC2)O[C@@H]1CO`, the relative growth was inactive: 0.994. As for `C[C@@H]1CN([C@H](C)CO)C(=O)c2cccc(NC(=O)C3CCCCC3)c2O[C@H]1CN(C)Cc1ccc(C(=O)Nc2ccccc2N)cc1`, the relative growth is inactive: 1.01. `C[C@@H]1CN([C@@H](C)CO)C(=O)c2cc(NC(=O)Nc3ccc(C(F)(F)F)cc3)ccc2O[C@@H](C)CCCCO[C@@H]1CN(C)C`: the relative growth is inactive: 0.938. Consider `C[C@H](CO)N1C[C@H](C)[C@@H](CN(C)C(=O)Nc2ccc(C(F)(F)F)cc2)Oc2c(NS(=O)(=O)c3ccc(F)cc3)cccc2C1=O`, for which the relative growth is inactive: 0.982. For `COc1ccc(S(=O)(=O)N(C)C[C@H]2Oc3ncc(C#CC4(O)CCCC4)cc3C(=O)N([C@H](C)CO)C[C@H]2C)cc1`, the relative growth is inactive: 1.01.

Regarding `CC(C)NC(=O)Nc1ccc2c(c1)C(=O)N([C@H](C)CO)C[C@H](C)[C@H](CN(C)Cc1ccc3c(c1)OCO3)O2`, the relative growth is inactive: 1.03. In the case of `C[C@@H]1CN([C@@H](C)CO)C(=O)c2cccc(NC(=O)c3nc4ccccc4s3)c2O[C@@H]1CN(C)Cc1ccc(C(=O)Nc2ccccc2N)cc1` it was inactive: 1.01. The result for `Cc1cc(C)n([C@@H](C)CN)n1` reads inactive: 0.993; that for `C[C@H]1CN([C@@H](C)CO)C(=O)c2cccc(NS(=O)(=O)c3cn(C)cn3)c2O[C@H]1CN(C)S(=O)(=O)c1ccccc1`, inactive: 0.997.

On to `Cc1ccc(S(=O)(=O)N(C)C[C@H]2Oc3ccc(NS(=O)(=O)c4ccc(F)cc4)cc3CC(=O)N([C@H](C)CO)C[C@@H]2C)cc1`, for which the relative growth is inactive: 1.02. The result for `Cc1ccc(S(=O)(=O)N(C)C[C@@H]2Oc3c(NS(C)(=O)=O)cccc3C(=O)N([C@H](C)CO)C[C@@H]2C)cc1` reads inactive: 0.998; that for `C[C@H](CO)N1C[C@H](C)[C@@H](CN(C)Cc2ccncc2)OCCCC[C@H](C)Oc2ccc(NC(=O)Nc3ccc(F)cc3)cc2C1=O`, inactive: 0.992.
